Here are results for 39 compounds from PubChem BioAssay AID1745853 (National Center for Advancing Translational Sciences (NCATS), 2022).

Common to all, as to test: Primary Screen for Target Class Profiling of Small Molecule Inhibitors of Methyltransferases
Assay [1] addresses Glycine N-methyltransferase (Homo sapiens) (UniProt Q14749). As to conditions: purified enzyme, MTase-Glo SAH luminescence; measured here: GNMT inhibition; at 40 µM; stronger effect = lower value. In a few lines:
(§1)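 Each enzyme was reacted with SAM and its substrate, with compounds tested once at 40 uM; SAH formed was read by MTase-Glo luminescence.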

Assay [2] has as its target Guanidinoacetate N-methyltransferase (Homo sapiens) (UniProt Q14353). As to conditions: purified enzyme, MTase-Glo SAH luminescence; measured here: GAMT inhibition; at 40 µM; stronger effect = lower value. In a few lines:
as §1

The target in assay [3] is Histamine N-methyltransferase (Homo sapiens) (UniProt P50135). As to conditions: purified enzyme, MTase-Glo SAH luminescence; measured here: HNMT inhibition; at 40 µM; stronger effect = lower value. In a few lines:
as §1

Assay [4] addresses Nicotinamide N-methyltransferase (Homo sapiens) (UniProt P40261). As to conditions: purified enzyme, MTase-Glo SAH luminescence; measured here: NNMT inhibition; at 40 µM; stronger effect = lower value. In short, it runs like this:
as §1

In assay [5] the target is Phenylethanolamine N-methyltransferase (Homo sapiens) (UniProt P11086). As to conditions: purified enzyme, MTase-Glo SAH luminescence; measured here: PNMT inhibition; at 40 µM; stronger effect = lower value. In a few lines: as §1

The list shows a part of the results. Further columns of the screen follow, without active or inactive calls.
% is scaled to controls: 0 for no effect and ±100 for the full control effect.

As to `O=C(Nc1ncc([N+](=O)[O-])s1)c1ccccc1O`, the activity change, negative = inhibition in assay [1] is -15.2%; in assay [2], -7.22%; in assay [3] it was -4.82%; in assay [4], -15.1%; in assay [5] it was -4.45%.
As for `CCCc1cc2c(-c3ccccc3)cc(=O)oc2cc1OCc1ccc(C(=O)OC)o1`, the activity change, negative = inhibition is -5.69% in assay [1]; 5.72% in assay [2]; 1.27% in assay [3]; -1.58% in assay [4]; -2.84% in assay [5].
As for `O=C1NC2(CCN(Cc3ccccc3C(F)(F)F)C2)COc2ccccc21` (stereo not drawn), the activity change, negative = inhibition in assay [1] was -5.29%; in assay [2], -3.23%; in assay [3], -2.72%; in assay [4], -9.95%; in assay [5], -4.69%.
On the same counts, the results for `Cc1cc(C)cc(-c2ccc(CN3CCCC(N[S+](=O)([O-])c4cccs4)C3)cc2)c1` (stereo not drawn) are -0.584%, -0.409%, 0.2%, 0.85% and 0.847%.
As to `CCOC(=O)c1ccc(OCCC2CCN(c3ccc(C)nn3)CC2)cc1`, the activity change, negative = inhibition in assay [1] was -11%; in assay [2] it was 6.44%; in assay [3] it was 7.79%; in assay [4], -30%; in assay [5], -6.91%.
Taken in the same sequence, the figures for `OC[C@H]1O[C@@H](Oc2ccccc2)[C@H](O)[C@@H](O)[C@@H]1O` were 4.42%, 6.69%, 11.6%, -5.41% and 6.69%.
On to `Cn1ncc(Cl)c1-c1cc(C(=O)N[C@H](CN)Cc2ccc(F)c(F)c2)oc1Cl`, for which the activity change, negative = inhibition in assay [1] worked out at 0.132%; in assay [3], 4.07%.
For `CN1C(=O)c2cc(C(=O)N3CCN(c4ccccc4)CC3)nn2CC1(C)C(=O)NC1CCCCCC1` (stereo not drawn), the activity change, negative = inhibition in assay [1] is -3.48%; in assay [2], 0%; in assay [3] it was -0.642%; in assay [4], -1.9%; in assay [5], -3%.
Consider `Cc1ccc(CCNC(=O)c2cc3n(n2)CC(C)(C(=O)NCc2ccccc2)N(C)C3=O)cc1` (stereo not drawn), for which the activity change, negative = inhibition in assay [1] was 1.33%; in assay [2] it was 1.03%; in assay [3], -7.58%; in assay [4], 1.54%; in assay [5] it was -2.29%.
For `O=C(CCc1nnc2n(Cc3ccc(F)cc3)c(=O)c3ccccc3n12)NC1CCCCC1`, the activity change, negative = inhibition is -3.3% in assay [1]; 0.224% in assay [2]; 9.69% in assay [3]; 8.74% in assay [4]; 2.88% in assay [5].
On to `CCCCN1C(=O)c2cc(C(=O)NC3CCCCC3)nn2CC1(C)C(=O)NC1CCCC1` (stereo not drawn), for which the activity change, negative = inhibition in assay [1] was -0.103%; in assay [2] it was 5.22%; in assay [3], -2.59%; in assay [4], -0.964%; in assay [5], -0.614%.
As for `O=C(C1CCCN1C(=O)c1ccccc1Cl)N1CCC(c2nc3ccncc3[nH]2)CC1` (stereo not drawn), the activity change, negative = inhibition is -6.36% in assay [1]; -5.32% in assay [2]; -9.73% in assay [3]; -10.4% in assay [4]; 0.255% in assay [5].
As to `O=C(c1ccc(N2CCC(O)CC2)nc1)N1CCC(N2CCOCC2)CC1`, the activity change, negative = inhibition in assay [1] is -2.9%; in assay [2], -9.52%; in assay [3] it was -2.53%; in assay [4] it was -9.26%; in assay [5] it was -5.5%.
On the same counts, the results for `CN(C)Cc1nnc(C2CC(NC(=O)CC3Cc4ccccc4C3)C2)n1C` (stereo not drawn) are -4.97%, -5.33%, -2.15%, -9.34% and -6.67%.
With `COc1cccc(C(O)c2nc(C(=O)N3CCN(c4ccccn4)CC3)c(C)o2)c1` (stereo not drawn), the activity change, negative = inhibition is -4.38% in assay [1]; -3.8% in assay [2]; -3.48% in assay [3]; -5.56% in assay [4]; -0.089% in assay [5].
Consider `Fc1ccc(-c2nc3n(c2-c2ccncc2)CCS3)cc1`, for which the activity change, negative = inhibition is 6.22% in assay [2], -16% in assay [4] and 3.6% in assay [5].
For `CCOC(=O)c1cc2n(n1)CC(C)(C(=O)NCc1ccccc1)N(Cc1ccccc1Cl)C2=O` (stereo not drawn), the activity change, negative = inhibition is 4.19% in assay [1]; 0% in assay [2]; 5.06% in assay [3]; 1.24% in assay [4]; 0.402% in assay [5].
Taken in the same sequence, the figures for `C=C1C(=O)O[C@@H]2/C=C(\CO)CC/C=C(/C=O)C[C@H](O)[C@@H]12` were 1.07%, -0.441%, 13%, -9.15% and 2.66%.
With `CC/C=C\CC1C(CC(=O)O)CCC1OC1OC(CO)C(O)C(O)C1O` (stereo not drawn), the activity change, negative = inhibition in assay [1] is 0%; in assay [2], 6.9%; in assay [3], 11.4%; in assay [4] it was -4.64%; in assay [5], 4%.
On to `CC(C)(C)c1cc2n(n1)CC(C)(C(=O)NC1CCCCCC1)N(Cc1ccccc1F)C2=O` (stereo not drawn), for which the activity change, negative = inhibition in assay [1] was 1.89%; in assay [2] it was 0%; in assay [3] it was 3.78%; in assay [4], 2.93%; in assay [5], -0.669%.
As to `CCc1nc2c(c(-c3ccc(O)cc3)n1)CN(Cc1ccc(NC(C)=O)cc1)CC2`, the activity change, negative = inhibition was -15.9% in assay [1]; -1.81% in assay [2]; -22% in assay [3]; -7.47% in assay [4]; -5.06% in assay [5].
With `O=C(NC1CCN(C(=O)c2ccc(-c3cncnc3)cc2)CC1)c1ccccc1F`, the activity change, negative = inhibition in assay [1] is -11.1%; in assay [2] it was -12.2%; in assay [3], -6.72%; in assay [4], -14.8%; in assay [5] it was -12.7%.
For `COc1cccc(CN2C(=O)c3cc4occc4n3CC2(C)C(=O)NC2CCCCCCC2)c1OC` (stereo not drawn), the activity change, negative = inhibition was -2.08% in assay [1]; 4.25% in assay [2]; -3.15% in assay [3]; -6.83% in assay [4]; -3.62% in assay [5].
As to `COc1ccc(C(=O)N2CCCCC23Cc2ccccc2NC3=O)cc1` (stereo not drawn), the activity change, negative = inhibition is -5.35% in assay [1]; -0.572% in assay [2]; -0.927% in assay [3]; -1.82% in assay [4]; 1.38% in assay [5].
Taken in the same sequence, the figures for `Cc1cccc(CNC(=O)Cn2ccc3cc(S(=O)(=O)N4CCCCC4)ccc32)c1` were -0.573%, 0%, -2.05%, -4% and -0.668%.
Regarding `O=C(O[C@@H]1O[C@H](CO)[C@@H](O)[C@H](O)[C@H]1O)c1c(O)cc(O)cc1/C=C/c1ccccc1`, the activity change, negative = inhibition in assay [1] is 3.9%; in assay [2], 6.72%; in assay [3], 11.1%; in assay [4], -5.33%; in assay [5], 8.36%.
Taken in the same sequence, the figures for `COCCNC(=O)c1cc2n(n1)CC(C)(C(=O)NCc1ccc(F)cc1)N(C)C2=O` (stereo not drawn) were 2.4%, 0.299%, 1.96%, 2.77% and -1.38%.
Take `Cc1ccc(C)c(N2C(=O)c3cc4sccc4n3CC2(C)C(=O)NC2CCCCCC2)c1` (stereo not drawn): the activity change, negative = inhibition in assay [1] is -7.94%; in assay [2] it was 1.43%; in assay [3], -8.73%; in assay [4], -3.22%; in assay [5], -7.01%.
Turning to `C#C[C@]1(O)CC[C@H]2[C@@H]3CCC4=Cc5oncc5CC4(C)[C@H]3CCC21C` (stereo partly drawn), the activity change, negative = inhibition is -3.79% in assay [1]; 9.92% in assay [2]; 2.21% in assay [3]; -15.5% in assay [4]; 3.99% in assay [5].
Taken in the same sequence, the figures for `Cc1cc(C(=O)N2CCC(CCOc3ccc(F)cc3)C2)c(C)n1Cc1ccc(F)cc1` (stereo not drawn) were -12.3%, -10.9%, -8.49%, -23.8% and -13.4%.
Regarding `N#Cc1c2nc3ccccc3nc2n2ccc(NC(=O)c3cccs3)cc12`, the activity change, negative = inhibition in assay [2] is -3.88%; in assay [4], -14.3%; in assay [5] it was -37.3%.
For `O=C(CCC1CCCN(S(=O)(=O)c2ccccc2F)C1)NCc1cccs1` (stereo not drawn), the activity change, negative = inhibition in assay [1] was -1.58%; in assay [2], 2.6%; in assay [3], -2.78%; in assay [4], -4.4%; in assay [5], -7.04%.
Regarding `COc1ccc2c(c1)c(NC(C)=O)c1n2CC(C)(C(=O)NC2CCCCC2)N(Cc2ccco2)C1=O` (stereo not drawn), the activity change, negative = inhibition in assay [1] is -8.7%; in assay [2], 3.94%; in assay [3], 0.112%; in assay [4], -2.83%; in assay [5], -2.29%.
On the same counts, the results for `C=CCNC(=O)N[C@H]1C[C@@H](C(=O)N[C@@H](Cc2ccc(OC)cc2)C(N)=O)N(C(=O)CC(C)(C)C)C1` are 0.676%, 0.04%, 0.402%, -3.37% and 2.51%.
As for `COc1ncc2cc(C(=O)Nc3cc(C(=O)NCc4cccc(Cl)c4)ccc3Cl)c(=O)[nH]c2n1`, the activity change, negative = inhibition in assay [1] is 2.19%; in assay [2], 6.04%; in assay [3], 8.14%; in assay [4], -6.89%; in assay [5], 0.708%.
`OC1CCOC2(CCN(Cc3cccnc3)CC2)C1` (stereo not drawn): the activity change, negative = inhibition in assay [1] is -3.45%; in assay [2], -6.88%; in assay [3], -1.71%; in assay [4], -10.7%; in assay [5] it was 3.76%.
Turning to `COc1ccc(OC)c(CNC(=O)c2cc3n(n2)CC(C)(C(=O)NC2CCCCC2)N(C)C3=O)c1` (stereo not drawn), the activity change, negative = inhibition in assay [1] was -0.715%; in assay [2] it was -0.678%; in assay [3], 1.9%; in assay [4], 2.58%; in assay [5] it was -1.85%.
As to `CC(=O)NC(CO)C(=O)N1CCc2[nH]nc(-c3ccc(F)c(F)c3)c2C1` (stereo not drawn), the activity change, negative = inhibition in assay [1] was -1.26%; in assay [2] it was 1.59%; in assay [3], 0.826%; in assay [4], 1.02%; in assay [5], 2.89%.
As for `CCc1cc2c(cc3n2CC(C)(C(=O)NC2CCCCCC2)N(c2cccc(OC)c2)C3=O)s1` (stereo not drawn), the activity change, negative = inhibition was 3.04% in assay [1]; 1.24% in assay [2]; 5.14% in assay [3]; -2.19% in assay [4]; 0.483% in assay [5].
